Read-outs that look alike come from different tables or passages of the source.
B1: hTβRII (G4S)4-hFc (Fc fusion)
chain: GATIPPHVQKSDVEMEAQKDEIICPSCNRTAHPLRHINNDMIVTDNNGAVKFPQLCKFCDVRFSTCDNQKSCMSNCSITSICEKPQEVCVAVWRKNDENITLETVCHDPKLPYHDFILEDAASPKCIMKEKKKPGETFFMCSCSSDECNDNIIFSEEYNTSNPDTGGGGSGGGGSGGGGSGGG[not shown - human IgG1 Fc and a few adjoining residues]
B2: hTβRII (G4S)2-hFc (Fc fusion)
chain: GATIPPHVQKSDVEMEAQKDEIICPSCNRTAHPLRHINNDMIVTDNNGAVKFPQLCKFCDVRFSTCDNQKSCMSNCSITSICEKPQEVCVAVWRKNDENITLETVCHDPKLPYHDFILEDAASPKCIMKEKKKPGETFFMCSCSSDECNDNIIFSEEYNTSNPDTGGGGSGGG[not shown - human IgG1 Fc and a few adjoining residues]
notes: Expressed in CHO cells; The leader is removed as for m1
B3: hTβRII (G4S)5-hFc (Fc fusion)
chain: GATIPPHVQKSDVEMEAQKDEIICPSCNRTAHPLRHINNDMIVTDNNGAVKFPQLCKFCDVRFSTCDNQKSCMSNCSITSICEKPQEVCVAVWRKNDENITLETVCHDPKLPYHDFILEDAASPKCIMKEKKKPGETFFMCSCSSDECNDNIIFSEEYNTSNPDTGGGGSGGGGSGGGGSGGGGSGGG[not shown - human IgG1 Fc and a few adjoining residues]
notes: Expressed in CHO cells; The leader is removed as for m1; Tested only in the reporter gene assay
B4: hTβRII (G4S)6-hFc (Fc fusion)
chain: GATIPPHVQKSDVEMEAQKDEIICPSCNRTAHPLRHINNDMIVTDNNGAVKFPQLCKFCDVRFSTCDNQKSCMSNCSITSICEKPQEVCVAVWRKNDENITLETVCHDPKLPYHDFILEDAASPKCIMKEKKKPGETFFMCSCSSDECNDNIIFSEEYNTSNPDTGGGGSGGGGSGGGGSGGGGSGGGGSGGG[not shown - human IgG1 Fc and a few adjoining residues]
notes: Tested only in the reporter gene assay
B5: hTβRII-hFc (Fc fusion)
chain: GATIPPHVQKSDVEMEAQKDEIICPSCNRTAHPLRHINNDMIVTDNNGAVKFPQLCKFCDVRFSTCDNQKSCMSNCSITSICEKPQEVCVAVWRKNDENITLETVCHDPKLPYHDFILEDAASPKCIMKEKKKPGETFFMCSCSSDECNDNIIFSEEYNTSNPDTG[not shown - human IgG1 Fc and a few adjoining residues]
notes: Expressed in CHO cells; also called TβRII-Fc fusion protein with TGGG linker
B6: hTβRII (G4S)3-hFc (Fc fusion)
chain: GATIPPHVQKSDVEMEAQKDEIICPSCNRTAHPLRHINNDMIVTDNNGAVKFPQLCKFCDVRFSTCDNQKSCMSNCSITSICEKPQEVCVAVWRKNDENITLETVCHDPKLPYHDFILEDAASPKCIMKEKKKPGETFFMCSCSSDECNDNIIFSEEYNTSNPDTGGGGSGGGGSGGG[not shown - human IgG1 Fc and a few adjoining residues]
notes: as for B2
B7: hTβRII extended hinge-hFc (Fc fusion)
chain: GATIPPHVQKSDVEMEAQKDEIICPSCNRTAHPLRHINNDMIVTDNNGAVKFPQLCKFCDVRFSTCDNQKSCMSNCSITSICEKPQEVCVAVWRKNDENITLETVCHDPKLPYHDFILEDAASPKCIMKEKKKPGETFFMCSCSSDECNDNIIFSEEYNTSNPDTGGG[not shown - human IgG1 Fc]
notes: as for B2

Legend:
TGFβ1 [1] = target: T1, TGFβ1 (human, UniProt P01137 in part); assay: cell-based or functional assay
TGFβ1 [2] = target: T1, TGFβ1; assay: cell-based or functional assay; remark: listed apart in the source
TGFβ1 [3] = target: T1, TGFβ1; assay: Biacore (surface plasmon resonance)
TGFβ1 [4] = target: T1, TGFβ1; assay: cell-based or functional assay; remark: listed apart in the source

T1 sequence (P01137 279-390 limits assumed): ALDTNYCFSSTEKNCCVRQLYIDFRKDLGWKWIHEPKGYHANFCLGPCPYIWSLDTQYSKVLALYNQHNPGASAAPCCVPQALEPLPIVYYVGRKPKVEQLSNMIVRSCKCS

Binder | IC50 (A549 CAGA12 luciferase reporter) (TGFβ1 [1]) | IC50 (read off the curve) (TGFβ1 [2]) | Kd (TGFβ1 [3]) | IC50 (A549 CAGA12 luciferase reporter) (TGFβ1 [4])
B1 | 0.07 nM | – | – | –
B2 | 1.12 nM | – | – | –
B3 | – | ~3 ng/mL | 8.8 pM | 0.03 nM
B4 | – | ~2 ng/mL | 3.8 pM | 0.02 nM
B5 | 7.69 nM | – | – | –
B6 | 0.22 nM | – | – | –
B7 | 5.67 nM | – | – | –

Source: patent US20220372107A1 (ACCELERON PHARMA, published 2022)
